# Test results taken from PMC4336329 (PLoS ONE, 2015).
# Out of some 310,000 compounds screened, about 2,200 (0.71%) showed an effect of 50% or more. Effects have a minus sign here. Some of the results follow. Where a SMILES comes first, the peptide text is derived from it. [ ]: non-standard residue; d: D form. The star is where a group is joined. ξ: configuration not given here. Tos = Cc1ccc(S(=O)(=O)*)cc1; Inp = O=C(O)C1CCNCC1; ξP = O=C(O)C1CCCN1
# Target: human ether-à-go-go-related gene (hERG) potassium channel (human, UniProt Q12809)
# Assay: primary screen, population patch clamp on CHO cells stably expressing hERG
# human ether-à-go-go-related gene (hERG) potassium channel, sequence (Q12809 whole entry, looked up): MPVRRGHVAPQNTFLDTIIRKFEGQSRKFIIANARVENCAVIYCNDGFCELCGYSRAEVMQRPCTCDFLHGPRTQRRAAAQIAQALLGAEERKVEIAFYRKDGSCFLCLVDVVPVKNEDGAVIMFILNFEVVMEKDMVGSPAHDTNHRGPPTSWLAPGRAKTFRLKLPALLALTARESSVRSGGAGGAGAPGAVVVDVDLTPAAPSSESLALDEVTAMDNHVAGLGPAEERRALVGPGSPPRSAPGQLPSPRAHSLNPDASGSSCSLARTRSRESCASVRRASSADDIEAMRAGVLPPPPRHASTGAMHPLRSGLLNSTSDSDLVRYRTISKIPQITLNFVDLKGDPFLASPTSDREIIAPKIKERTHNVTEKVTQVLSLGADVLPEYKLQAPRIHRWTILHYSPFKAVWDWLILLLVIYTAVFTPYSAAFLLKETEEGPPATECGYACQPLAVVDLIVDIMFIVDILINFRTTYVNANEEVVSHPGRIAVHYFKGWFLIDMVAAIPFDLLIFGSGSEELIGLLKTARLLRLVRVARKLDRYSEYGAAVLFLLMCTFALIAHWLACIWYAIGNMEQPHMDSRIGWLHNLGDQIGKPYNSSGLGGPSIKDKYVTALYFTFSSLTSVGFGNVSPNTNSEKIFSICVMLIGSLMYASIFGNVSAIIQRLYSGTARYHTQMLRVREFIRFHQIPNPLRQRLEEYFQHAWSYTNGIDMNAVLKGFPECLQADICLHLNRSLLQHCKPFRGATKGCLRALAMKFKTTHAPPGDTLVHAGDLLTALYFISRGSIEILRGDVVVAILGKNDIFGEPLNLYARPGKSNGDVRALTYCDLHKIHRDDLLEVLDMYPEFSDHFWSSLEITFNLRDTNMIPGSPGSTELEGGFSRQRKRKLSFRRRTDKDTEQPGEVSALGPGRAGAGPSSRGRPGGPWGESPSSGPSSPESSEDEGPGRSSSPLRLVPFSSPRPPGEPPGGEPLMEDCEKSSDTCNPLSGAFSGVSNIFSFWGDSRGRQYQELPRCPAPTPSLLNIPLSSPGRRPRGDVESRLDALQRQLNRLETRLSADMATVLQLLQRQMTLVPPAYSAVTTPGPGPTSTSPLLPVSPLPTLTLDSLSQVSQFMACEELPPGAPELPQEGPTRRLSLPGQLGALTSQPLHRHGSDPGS
row,Structure (SMILES),"hERG current change (%, negative = inhibition) at 1uM"
1,Oc1ccccc1-c1nnc(COc2ccc(Cl)cc2Cl)o1,11.2%
2,COc1cc(N/N=C/c2ccccc2O)ncn1,9.33%
3,Cc1ccc(NC(=O)COC(=O)C2CC3C=CC2C3)cc1S(=O)(=O)N1CCCCC1 (stereo not drawn),5.06%
4,CCN(/C(N)=N/c1nc(C)cc(C)n1)c1ccccc1,6.07%
5,CCOC(=O)c1c(S(=O)(=O)N(C)Cc2ccco2)c(C)n(C)c1C,7.63%
6,CCCCN1C(=O)c2ccc(C(=O)Nc3ccccc3N3CCOCC3)cc2C1=O,-0.178%
7,Cc1cc(=O)n2[nH]c(C(=O)O)nc2n1,16.6%
8,Cc1cccc(N2C(=O)C3CC3C2=O)c1 (stereo not drawn),20.4%
9,O=C(NC12CC3CC(CC(C3)C1)C2)c1ccc(COc2ccc(Cl)cc2[N+](=O)[O-])o1,11.2%
10,O=C(COc1ccc(Cl)cc1)N(Cc1ccco1)C1CCS(=O)(=O)C1 (stereo not drawn),2.27%
11,COc1ccc(/C=C(\C#N)C(=O)C(C)(C)n2cncn2)cc1,17.9%
12,CCNC(=S)Nc1ccc(C)c(Cl)c1,16.1%
13,COc1ccc2cc(/C=N/NC(=O)CN(c3ccccc3)S(=O)(=O)c3ccccc3)c(Cl)nc2c1,13.5%
14,CCOc1cc(/C=C2\CN(C)C/C(=C\c3ccc(O)c(OCC)c3)C2=O)ccc1O.Cl,11.9%
15,COc1ccc(/C=C/C(=O)NCCc2c[nH]c3ccccc23)cc1OC,3.12%
16,CN(C)CCN(C(=O)c1ccc2c(c1)OCCO2)c1nc2cc3c(cc2s1)OCO3.Cl,5.58%
17,O=C(c1cn(-c2ccccc2)nc1-c1ccccc1)N1CCN(c2ccccn2)CC1,11.7%
18,Nc1c(S(=O)(=O)c2ccccc2)c2nc3ccccc3nc2n1CCN1CCOCC1,0.332%
19,CCN(c1ccc(NC(=O)COC(=O)c2ccc([N+](=O)[O-])o2)cc1)C(C)C,13.1%

row,Structure (SMILES),"hERG current change (%, negative = inhibition) at 1uM"
1,Cc1cccc(NC(=O)CSCC(=O)Nc2sccc2C#N)c1,0.701%
2,O=C(CN1CCCCCCC1)N/N=C/c1ccc([N+](=O)[O-])o1,-13.3%
3,COc1ccc(C(=O)NCCCNC(=O)c2cccnc2)cc1Br,12.8%
4,COc1ccc(-c2cc(C(=O)N3CCCCC3)c3ccccc3n2)cc1OC,6.7%
5,CSc1nnc2c(n1)OC(c1ccsc1)N(C(C)=O)c1ccccc1-2 (stereo not drawn),-11.9%
6,CCC(C)n1c(=S)[nH]c2ccccc2c1=O (stereo not drawn),7.24%
7,O=S1(=O)NC(CC2=CCCCC2)C2CCCCC2O1 (stereo not drawn),14.8%
8,O=C(NNc1cccc(Cl)n1)Nc1ccc(Cl)cc1,13.3%
9,Cn1ccnc1C(=O)c1ccc(Cl)c(S(=O)(=O)N2CCOCC2)c1,12.4%
10,COc1ccc(Cl)cc1NC(=O)COc1ccc(S(=O)(=O)N2CCOCC2)cc1C,11.2%
11,CC(Sc1nncs1)C(=O)NC1CCCCC1C (stereo not drawn),13.1%
12,CSC1=NCCN1C(=O)Cc1cccc2ccccc12,11.2%
13,O=C(Nc1cc([N+](=O)[O-])ccc1O)NC1CCS(=O)(=O)C1 (stereo not drawn),12.3%
14,Cc1nnc(Nc2ccc(C(=O)N3CCOCC3)cc2)c2ccccc12,8.96%
15,CCCn1c(N)nc2ccccc21,9.27%
16,COC(=O)c1ccccc1OC(=O)c1cccnc1,12.2%
17,CN(C)S(=O)(=O)c1ccc(NC(=O)CN2CCN(c3ccccn3)CC2)cc1,12.9%
18,CC(=O)Nc1ccc(NC(=O)c2ccc(COc3ccc(C)cc3)o2)cc1,12.6%
19,Brc1ccccc1-c1nc2c3ccccc3ncn2n1,6.3%

row,Structure (SMILES),"hERG current change (%, negative = inhibition) at 1uM"
1,CC(C)NC(=O)c1ccc2c(=O)n(CC3CCCO3)c(=S)[nH]c2c1 (stereo not drawn),8.36%
2,Cc1ccccc1-n1c(SCC(=O)N/N=C/c2sccc2C)nc2ccccc2c1=O,8.81%
3,COc1ccc(/C=C(\C#N)C(=O)ONC2=NCCCCC2)cc1,5.63%
4,Cc1ccc(S(=O)(=O)N2CCC(C(=O)N3CCCC3C(=O)N[C@@H](CC(C)C)C(=O)NCC(N)=O)CC2)cc1 (stereo partly drawn) ({Tos-Inp}-[ξP]-Leu-Gly-NH2),-5.02%
5,Cl.Clc1ccc(Nc2nc3cccnc3s2)cc1,16.8%
6,O=c1[nH]cnc2sc3c(c12)CCN(Cc1ccccc1)C3,13.2%
7,COC(=O)c1ccc(Cc2ccccc2)o1,8.64%
8,Cl.N/C(=N\N=C/c1ccc(Br)cc1)N/N=C\c1ccc(Br)cc1,2.47%
9,COC(=O)c1ccc(NC(=S)NCCc2ccc(OC)cc2)cc1,14.3%
10,Cc1noc(C)c1COC(=O)COc1ccc(C#N)cc1,14.4%
11,O=C(NNC(=O)c1ccccc1O)c1ccc(Cl)c(S(=O)(=O)N2CCc3ccccc32)c1,14.1%
12,CC1(C)Cc2c(sc(NC(=O)c3ccc(S(=O)(=O)N4CCCC4)cc3)c2C#N)C(C)(C)N1,3.25%
13,Cc1ccc(F)c(NC(=O)C2CCCCC2C(=O)O)c1 (stereo not drawn),14.5%
14,Clc1ccc(/C=C/c2ncc3ccccn23)cc1,7.34%
15,CC(C)C(=O)Nc1ccc(C(=O)c2ccccc2)cc1,-0.822%
16,CN(CCOC(=O)c1cccc(F)c1)Cc1ccccc1.Cl,-3.43%
17,COc1cc(/C=C2\C(=N)N3N=CSC3=NC2=O)ccc1OS(=O)(=O)c1ccccc1,6.08%
18,COC(=O)CCC(=O)OC1(C)C(=O)C2=CN(CCN3CCOCC3)C(c3ccc(OC)cc3)=CC2=C(Br)C1=O (stereo not drawn),-1.84%
19,O=C(CSCc1ccc(F)cc1)NCc1ccc(F)cc1,2.28%
